In PubChem BioAssay AID651820 (National Center for Advancing Translational Sciences (NCATS), 2012):
The campaign covered roughly 340,000 compounds. About 12,000 (3.5%) were called active. Inconclusive means that the source gave no clear call. Such entries were picked first, then a sample of the others. Calls follow the shape of the dose curve; as a rule, active = well fitted inhibition curve with a large enough effect; inconclusive = small, poorly fitted or top-dose-only effect, or another doubt; inactive = no such curve, though single readings can be large or run the other way. Potencies of inconclusive entries are left out as doubtful fits.
% is scaled to controls: 0 for no effect and ±100 for the full control effect; potency is read from the fitted curve at half-maximal effect; tags tell the direction and shape of the fitted curve.

Assay: qHTS Assay for Inhibitors of Hepatitis C Virus (HCV)
Conditions: Huh7.5.1 HCVcc-Cre (HCVcc is cell-culture hepatitis C virus) infection, luciferase reporter, 44 h; activity change, negative = inhibition: at 41.8 µM (top of the series)
Procedure, shortened: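 A cell-based infection assay in which seeded cells (1,000 per well) receive test compound after 4 h, are inoculated with HCVcc-Cre at approximately 0.5 moi, and are incubated 44 h before luminescence detection.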
With `CN(c1ccccc1)c1ccc(/C=C(\CCC(=O)O)c2nc3ccccc3s2)cc1[N+](=O)[O-]` the “activity change, negative = inhibition” value was inactive: 11.2%.
For `COC(=O)C1=C(C)NC2=C(C(=O)CCC2)C1c1cn(Cc2ccc(Cl)cc2Cl)nc1-c1ccccc1` (stereo not given), the Potency was inconclusive [inhibitor, single point].
In the case of `COc1cc(/C=C/C(=O)N2CCc3ccccc3C2)cc(OC)c1OC`, the Potency is reported as inconclusive [inhibitor, partial curve].
For `COc1cc(C(C)=O)ccc1OCC(O)Cn1nc(C)c(Br)c1C` (stereo not given), the Potency was inconclusive [inhibitor, partial curve].
With `COc1ccc(N2CCN(CCNC(=O)C3CCN(S(=O)(=O)c4cccs4)CC3)CC2)cc1` the Potency was inconclusive [inhibitor, single point].
In the case of `COc1ccc(-c2oc3ncnc(NCCN4CCOCC4)c3c2-c2ccc(OC)cc2)cc1`, the Potency is reported as inconclusive [inhibitor, single point].
In the case of `Cc1ccccc1Nc1ncnc(N)n1`, the Potency is reported as inconclusive [inhibitor, single point].
For `CCC1CN(C(=O)N2CCC(C(=O)NCc3ccco3)CC2)c2cc(C)ccc2O1` (stereo not given), the Potency was inconclusive [inhibitor, partial curve].
In the case of `COc1ccc(CCN(C)Cc2nc(Cc3ccc(OC)c(OC)c3)no2)cc1OC`, the Potency is reported as inconclusive [inhibitor, single point].
With `COc1ccc(/C=N/N2CCN(C3c4ccccc4-c4ccccc43)CC2)cc1OC` the Potency was inconclusive [inhibitor, partial curve].
With `c1ccc2c(c1)[nH]c1ccncc12` the Potency was inconclusive [inhibitor, single point].
In the case of `O=C(O)[C@@H]1CCCN1S(=O)(=O)c1cccc2cccnc12`, the Potency is reported as inconclusive [inhibitor, single point].
In the case of `C[C@@H]1O[C@@H](O[C@@H]2C(=O)c3c(O)cc(O)cc3O[C@H]2c2ccc(O)c(O)c2)[C@H](O)[C@H](O)[C@H]1O`, the “activity change, negative = inhibition” value is reported as inactive: 4.89%.
In the case of `COc1cc(/C=N/NC(=O)Cc2ccccc2)ccc1Oc1ccc([N+](=O)[O-])cc1[N+](=O)[O-]`, the Potency is reported as active: 14.1 µM.
With `CC(=O)N1c2ccc(S(=O)(=O)NCC3CCC(C(=O)NCc4ccc(C)cc4)CC3)cc2CC1C` (stereo not given) the Potency was inconclusive [inhibitor, single point].
For `CCOc1ccc2oc(-c3ccccc3)c(C(N)=O)c2c1`, the Potency was inconclusive [inhibitor, single point].
For `CCn1c(Cc2ccccc2)nnc1SCC(=O)Nc1ccccc1N1CCOCC1`, the “activity change, negative = inhibition” value was inactive: -3.63%.
With `O=C(c1ccc2oc(Cc3ccc(Cl)cc3)nc2c1)N1CC[C@H](O)C1` the “activity change, negative = inhibition” value was inactive: 18.3%.
For `COc1ccc(C(=O)Nc2nc(CC(=O)NCc3ccc(F)cc3)cs2)cc1`, the Potency was inconclusive [inhibitor, partial curve].
For `CC1CN(C(=O)CCC(=O)NCCCN2CCC(Cc3ccccc3)CC2)c2cc(Cl)ccc2O1` (stereo not given), the Potency was inconclusive [inhibitor, partial curve].
For `COc1ccc(CN2CCN(Cc3csc(C(C)=O)c3)CC2CCO)c(C)c1C` (stereo not given), the Potency was inconclusive [inhibitor, partial curve, poor fit].
In the case of `Cn1cccc1-c1cc(C(=O)N/N=C/c2cc(Br)ccc2O)[nH]n1`, the Potency is reported as active: 5.01 µM.
In the case of `Cc1nc2cc(Cc3ccccc3)ccc2o1`, the “activity change, negative = inhibition” value is reported as inactive: 18.3%.
In the case of `O=C(CCCOc1ccccc1)Nc1ccc(Cl)c(S(=O)(=O)N2CCOCC2)c1`, the Potency is reported as active: 7.08 µM.
With `CSCCC(NS(=O)(=O)c1ccc2c(c1)OCCO2)C(=O)N(C)Cc1ccc(C)cc1` (stereo not given) the “activity change, negative = inhibition” value was inactive: -26.3%.
For `COc1ccc(/C=C2/C(=O)OCc3cc(OC)c(OC)cc32)cc1`, the Potency was inconclusive [inhibitor, full curve].
For `COc1ccc(CS(=O)c2nc(C)cc(C)c2S(C)(=O)=O)cc1` (stereo not given), the “activity change, negative = inhibition” value was inactive: -2.18%.
In the case of `O=C(Nc1ccc([N+](=O)[O-])cc1)Nc1ccc(N2CCOCC2)c2nonc12`, the “activity change, negative = inhibition” value is reported as inactive: -15.7%.
In the case of `CCCCCCn1c(CN2CCN(Cc3ccccc3)CC2)nc2c1c(=O)n(C)c(=O)n2C`, the Potency is reported as inconclusive [inhibitor, single point].
With `CC1CCN(c2ccc(C(=O)O)cc2N)CC1` the “activity change, negative = inhibition” value was inactive: -1.24%.
For `Cc1cc2nc(C3CCN(CC4COc5ccccc5O4)CC3)[nH]c2cc1C` (stereo not given), the Potency was inconclusive [inhibitor, partial curve].
In the case of `Cc1ccc(-c2nc(CSCC(=O)N3CCN(c4ccccn4)CC3)c(C)o2)cc1`, the Potency is reported as inconclusive [inhibitor, partial curve].
With `O=C1NC(=O)[C@]2(Cc3ccccc3N3CCN(c4ccccc4)CC32)C(=O)N1c1ccccc1` (stereo not given in full) the “activity change, negative = inhibition” value was inactive: -23%.
In the case of `C=CC[n+]1c(-c2ccc(Cl)cc2Cl)csc1Nc1c(C)n(C)n(-c2ccccc2)c1=O`, the Potency is reported as active: 12.6 µM.
In the case of `CCC(=O)N(C)CCc1cc2c(c(OC)c1/C=N/NS(=O)(=O)c1ccc(C)cc1)OCO2`, the Potency is reported as inconclusive [inhibitor, single point].
For `Cc1c(/C=N/NC(N)=O)c2ccccn2c1C(=O)c1ccncc1`, the “activity change, negative = inhibition” value was inactive: -7.66%.
In the case of `Cn1cc(C(=O)c2ccc(Cl)cc2Cl)cc1C(=O)N/N=C(\N)COc1ccc(F)cc1`, the Potency is reported as active: 10 µM.
For `COC(=O)c1cc(CNC(=O)c2sccc2-c2ccccc2)ccc1OC`, the Potency was active: 11.2 µM.
For `O=C(CNS(=O)(=O)c1ccccc1)Nc1cccc([N+](=O)[O-])c1`, the “activity change, negative = inhibition” value was inactive: -4.55%.
With `CCOc1ccccc1OCCN1CCC(Cc2ccccc2)CC1` the Potency was inconclusive [inhibitor, single point].
In the case of `CCc1ccc(NC(=O)CSc2nnc(COc3ccc4c(c3)CCCC4)o2)cc1`, the “activity change, negative = inhibition” value is reported as inactive: -5.18%.
For `Cc1ccc(S(=O)(=O)N2CCOCC2)cc1NCC(=O)Nc1ccc(OC(F)(F)F)cc1`, the “activity change, negative = inhibition” value was inactive: 30.4%.
In the case of `O=[N+]([O-])c1ccc(N2CCNCC2)cc1N1CCCCCC1`, the Potency is reported as inconclusive [inhibitor, partial curve].
With `O=C(/C=C/c1ccccc1)Nc1cccc(C(=O)NCCc2ccccc2)c1` the Potency was inconclusive [inhibitor, partial curve].
For `O=[N+]([O-])c1cc(CN2CCN(c3cccc(C(F)(F)F)c3)CC2)c2cccnc2c1O`, the Potency was active: 3.98 µM.
In the case of `CCOC(=O)C1=C(C)NC(=O)NC1c1ccc(-c2ccc(F)cc2)o1` (stereo not given), the Potency is reported as inconclusive [inhibitor, single point].
With `COc1cc(OC)cc(C(=O)N[C@H](C(=O)Nc2nc3c(s2)CCCC3)C(C)C)c1` the Potency was inconclusive [inhibitor, partial curve].
With `CC(C)CC(=O)Nc1ccc2nn(-c3ccccc3)nc2c1` the Potency was inconclusive [inhibitor, partial curve].
For `O=C(COC(=O)CNC(=O)C1CCCCC1)Nc1ccccc1`, the Potency was inconclusive [inhibitor, single point].
For `O=S(=O)(c1cc(C(F)(F)F)ccc1Cl)N1CCN(c2ncnc3ccccc23)CC1`, the Potency was active: 14.1 µM.
In the case of `O=C(Cc1ccc2c(c1)OCCO2)c1c(O)cc(O)cc1O`, the “activity change, negative = inhibition” value is reported as inactive: 9.24%.
For `CCC(=O)Nc1nc2c(c(=O)[nH]1)CCCC2`, the “activity change, negative = inhibition” value was inactive: 6.06%.
For `COc1ccc(Cl)cc1NC(=O)CN(C)C(=O)c1ccc(N2CCCCC2)c([N+](=O)[O-])c1`, the Potency was inconclusive [inhibitor, single point].
In the case of `CC(NC(=O)c1cccc(F)c1)C(c1cccs1)N1CCN(C)CC1` (stereo not given), the Potency is reported as inconclusive [inhibitor, partial curve].
For `CCCc1ccccc1OCCNC(C)=O`, the “activity change, negative = inhibition” value was inactive: -6.73%.
In the case of `O=[N+]([O-])c1ccc(COc2ccc(CN3CCOCC3)cc2)cc1`, the Potency is reported as inconclusive [inhibitor, single point].
For `CN(C)C(=O)c1cc2cc([N+](=O)[O-])ccc2s1`, the Potency was inconclusive [inhibitor, partial curve].
For `COc1cccc(C(=O)NCC(=O)OCC(=O)NC2CCCCC2)c1`, the “activity change, negative = inhibition” value was inactive: 11.5%.
In the case of `O=C(COC(=O)c1ccccn1)Nc1cccnc1Cl`, the “activity change, negative = inhibition” value is reported as inactive: 12.2%.
For `CCCc1cc(=O)oc2cc(C)cc(OCC(=O)Nc3ccccn3)c12`, the Potency was inconclusive [inhibitor, partial curve].
In the case of `Cc1ccc(NC(=S)N/N=C2\CC(C)(C)Oc3ccc(O)cc32)cc1`, the Potency is reported as inconclusive [inhibitor, single point].
In the case of `CSc1nc2ccc(Nc3nc(N4CCOCC4)nc(N4CCOCC4)n3)cc2s1`, the Potency is reported as inconclusive [inhibitor, partial curve, poor fit].
With `Cc1ccc2[nH]c(C(=O)NN=C3CCCCC3)c(-c3ccccc3)c2c1` the “activity change, negative = inhibition” value was inactive: -0.159%.
With `C/C(=N\NC(=S)Nc1cccc(C)c1)c1cc2ccccc2o1` the Potency was inconclusive [inhibitor, single point].
For `Cc1ccc(N2CC(C(=O)N3CCC4(CC3)CC(=O)c3ccccc3O4)CC2=O)cc1` (stereo not given), the Potency was inconclusive [inhibitor, full curve, poor fit].
With `CC(=O)c1cccc(CN2CCC(n3nccc3NC(=O)CCOc3ccccc3)CC2)c1` the “activity change, negative = inhibition” value was inactive: -19.3%.
For `Cc1ccc(OCc2nc(C#N)c(NCc3ccc4c(c3)OCO4)o2)cc1`, the Potency was inconclusive [inhibitor, single point].
In the case of `COc1cc(C(=O)NCC2CCCO2)cc(Br)c1OCc1ccccc1` (stereo not given), the Potency is reported as inconclusive [inhibitor, single point].
In the case of `CCOC(=O)C1(Cc2cccc(OC)c2)CCN(Cc2cc(OC)ccc2OC)CC1`, the Potency is reported as inconclusive [inhibitor, single point].
In the case of `CC1Cc2ccccc2N1C(=O)CSc1nc2c(c(=O)n(C)c(=O)n2C)n1Cc1ccc(F)cc1` (stereo not given), the Potency is reported as inconclusive [inhibitor, single point].
